Reference: the supplement of paper PMC12217912
The other results are listed elsewhere or left out. Sequences were assembled here from the parent chain. Inactive controls read about 0.05.

B1: TEV protease; numbered along this chain (parent)
chain: MGESLFKGPRDYNPISSSICHLTNESDGHTTSLYGIGFGPFIITNKHLFRRNNGTLVVQSLHGVFKVKDTTTLQQHLVDGRDMIIIRMPKDFPPFPQKLKFREPQREERICLVTTNFQTKSMSSMVSDTSCTFPSGDGIFWKHWIQTKDGQCGSPLVSTRDGFIVGIHSASNFTNTNNYFTSVPKNFMELLTNQEAQQWVSGWRLNADSVLWGGHKVFMVKPEEPFQPVKEATQL

Variants of: B1
Test: raw area under fraction-flipped curve 0-4 h after induction (AUC4h, not background-subtracted), DNA-recorder readout of cleavage of the substrate (dimensionless); higher = more cleavage of the substrate by the protease variant
Conditions: temperature: 34 °C; time window: 0-4 h after rhamnose induction
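Further: Bxb1 expression induced with 0.2% (w/v) L-rhamnose at OD600 near 0.5, cultures sampled hourly, flipped fraction per protease–substrate barcode pair counted by paired-end Illumina sequencing.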

Variant | area with substrate ENLYFCS | area with substrate ENLYFDS | area with substrate ENLYFFS | area with substrate ENLYFIS | area with substrate ENLYFNS | area with substrate ENLYFPS | area with substrate ENLYFVS | area with substrate ENLYFES | area with substrate ENLYFHS | area with substrate ENLYFKS | area with substrate ENLYFLS | area with substrate ENLYFMS | area with substrate ENLYFSS | area with substrate ENLYFTS | area with substrate ENLYFWS | area with substrate ENLYFYS | area with substrate ENLYFRS | area with substrate ENLYFGS
MGESLFKGPRDYNPISSSICHLTNESDGHTTSLYGIGFGPFIITNKHLFRRNNGTLVVQSLHGVFKVKDTTTLQQHLVDGRDMIIIRMPKDFPPFPQKLKFREPQREERICLVTTNFQTKSMSSMVSDTSCTFPSGDGIFWKHWIQTKDGQCGSPLVSTRDGFIVGIHSYSNFTNTNNYFTSVPKNFMELLTNQEAQQWVSGWRLNADSVLWGGHKVFMVKPEEPFQPVKEATQL [A170Y] | 0.0676 | 0.0576 | 0.0741 | 0.0544 | 0.072 | 0.0626 | 0.0578 |  |  |  |  |  |  |  |  |  |  | 
MGESLFKGPRDYNPISSSICHLTNESDGHTTSLYGIGFGPFIITNKHLFRRNNGTLVVQSLHGVFKVKDTTTLQQHLVDGRDMIIIRMPKDFPPFPQKLKFREPQREERICLVTTNFQTKSMSSMVSDTSCTFPSGDGIFWKHWIQTKDGQCGSPLVSTRDGFIVGIHSASNFTLTNNYFTSVPKNFMELLTNQEAQQWVSGWRLNADSVLWGGHKVFMVKPEEPFQPVKEATQL [N175L] | 0.0583 |  |  | 0.0542 |  | 0.0583 |  | 0.0872 | 0.0527 | 0.0677 | 0.0624 | 0.0563 | 0.0685 | 0.056 | 0.0479 |  |  | 
MGESLFKGPRDYNPISSSICHLTNESDGHTTSLYGIGFGPFIITNKHLFRRNNGTLVVQSLHGVFKVKDTTTLQQHLVDGRDMIIIRMPKDFPPFPQKLKFREPQREERICLVTTNFQTKSMSSMVSDTSCTFPSGDGIFWKHWIQTKDGQCGSPLVSTRDGFIVGIHSASNFTGTNNYFTSVPKNFMELLTNQEAQQWVSGWRLNADSVLWGGHKVFMVKPEEPFQPVKEATQL [N175G] | 0.0583 | 0.0586 | 0.0737 | 0.0711 | 0.0508 | 0.0648 | 0.0556 | 0.0629 |  | 0.0586 | 0.0626 | 0.0611 |  | 0.0478 |  | 0.049 |  | 
MGESLFKGPRDYNPISSSICHLTNESDGHTTSLYGIGFGPFIITNKHLFRRNNGTLVVQSLHGVFKVKDTTTLQQHLVDGRDMIIIRMPKDFPPFPQKLKFREPQREERICLVTTNFQTKSMSSMVSDTSCTFPSGDGIFWKHWIQTKDGQCGSPLVSTRDGIIVGIHSASNFTNTNNYFTSVPKNFMELLTNQEAQQWVSGWRLNADSVLWGGHKVFMVKPEEPFQPVKEATQL [F163I] | 0.0528 |  | 0.0692 | 0.057 | 0.0701 | 0.0524 | 0.049 | 0.0678 |  | 0.0609 |  | 0.0771 |  | 0.0594 |  | 0.0673 | 0.0555 | 
MGESLFKGPRDYNPISSSICHLTNESDGHTTSLYGIGFGPFIITNKHLFRRNNGTLVVQSLHGVFKVKDTTTLQQHLVDGRDMIIIRMPKDFPPFPQKLKFREPQREERICLVTTNFQTKSMSSMVSDTSCTFPSGFGIFWKHWIQTKDGQCGSPLVSTRDGFIVGIHSASNFTNTNNYFTSVPKNFMELLTNQEAQQWVSGWRLNADSVLWGGHKVFMVKPEEPFQPVKEATQL [D137F] | 0.0581 |  | 0.0694 | 0.0521 |  | 0.0614 |  | 0.0653 | 0.0152 | 0.0678 |  | 0.0649 |  |  | 0.0479 |  | 0.0581 | 0.0482
MGESLFKGPRDYNPISSSICHLTNESDGHTTSLYGIGFGPFIITNKHLFRRNNGTLVVQSLHGVFKVKDTTTLQQHLVDGRDMIIIRMPKDFPPFPQKLKFREPQREERICLVTTNFQTKSMSSMVSDTSCTFPSGDGIFWKHWIQTKDGQCGSPLVSTRDGFIVGIHSASNFTNTNNYFTSAPKNFMELLTNQEAQQWVSGWRLNADSVLWGGHKVFMVKPEEPFQPVKEATQL [V183A] | 0.0533 |  | 0.0502 | 0.0505 | 0.0661 | 0.0681 | 0.0602 | 0.0566 |  | 0.0629 | 0.0631 | 0.0621 | 0.0542 | 0.0371 | 0.0649 | 0.0526 | 0.0612 | 
MGESLFKGPRDYNPISSSICHLTNESDGHTTSLYGIGFGPFIITNKHLFRRNNGTLVVQSLHGVFKVKDTTTLQQHLVDGRDMIIIRMPKDFPPFPQKLKFREPQREERICLVTTNFQTKSMSSMVSDTSCTFPSGDGIFWKHWIQTKDGQCGSILVSTRDGFIVGIHSASNFTNTNNYFTSVPKNFMELLTNQEAQQWVSGWRLNADSVLWGGHKVFMVKPEEPFQPVKEATQL [P155I] | 0.0611 |  | 0.0676 | 0.0505 | 0.0636 | 0.0542 |  | 0.056 | 0.0483 | 0.0504 |  | 0.0557 |  | 0.0527 |  | 0.0577 | 0.0553 | 0.053
MGESLFKGPRDYNPISSSICHLTNESDGHTTSLYGIGFGPFIITNKHLFRRNNGTLVVQSLHGVFKVKDTTTLQQHLVDGRDMIIIRMPKDFPPFPQKLKFREPQREERICLVTTNFQTKSMSSMVSDTSCTFPSGDGIFWKHWIQTKDGQCGSPLVSTRDGFIVGIHSASNFTNTNNYFTSVPKNFNELLTNQEAQQWVSGWRLNADSVLWGGHKVFMVKPEEPFQPVKEATQL [M188N] | 0.0476 | 0.0652 | 0.0675 | 0.0693 | 0.0652 | 0.0632 |  | 0.0632 |  |  |  | 0.0716 |  | 0.0694 | 0.0346 | 0.0561 | 0.0499 | 
MGESLFKGPRDYNPISSSICHLTNESDGHTTSLYGIGFGPFIITNKHLFRRNNGTLVVQSLHGVFKVKDTTTLQQHLVDGRDMIIIRMPKDFPPFPQKLKFREPQREERICLVTTNFQTKSMSSMVSDTSCTFPSGDGIFWKHWIQTKDGQCGSPLVSTRDGFIVGIHSASNFTNTNNYFTSVPKNFMELPTNQEAQQWVSGWRLNADSVLWGGHKVFMVKPEEPFQPVKEATQL [L191P] | 0.0635 |  | 0.0457 | 0.0636 |  |  | 0.0557 | 0.0443 |  | 0.0501 |  | 0.0454 |  |  |  |  | 0.0533 | 
MGESLFKGPRDYNPISSSICHLTNESDGHTTSLYGIGFGPFIITNKHLFRRNNGTLVVQSLHGVFKVKDTTTLQQHLVDGRDMIIIRMPKDFPPFPQKLKFREPQREERICLVTTNFQTKSMSSMVSDTSCTFPSGDGIFWKHWIQTKDGQCGSPLVSTRDGFIVGIHSASNFTNTNNYFTRVPKNFMELLTNQEAQQWVSGWRLNADSVLWGGHKVFMVKPEEPFQPVKEATQL [S182R] | 0.0649 | 0.0403 | 0.0789 | 0.0617 | 0.0605 |  |  |  |  | 0.0597 | 0.0687 |  |  | 0.0636 |  | 0.0558 | 0.0536 | 
